# Assay results from the supplement of paper PMC11417369.
# The list shows a part of the results.
# Test system: PfHDP1 homeodomain (GST-tagged)
# Assay: gcPBM binding intensity (ln(normalized median fluorescence intensity)); higher = stronger DNA binding
# How it was run: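 Each value is the highest Masliner-normalised natural-log median intensity across replicate spots of either orientation of a probe. The probes were primer-extended double-stranded 36-bp intergenic genomic sequences on an Agilent 4 × 180k array, alongside negative controls, exposed for 1 h to GST-tagged P. falciparum DNA-binding domains expressed in E. coli. Bound protein was picked up with Alexa488 anti-GST antibody and scanned at 488 nm.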
row,Sequence,gcPBM binding intensity (ln)
1,AAATTTTTTATTAGTAGTACGCATAAATATATGTAT [XGTACX_site1934],6.55
2,AAAAATTCTTCCCAAGCATGCGCGCGTAAAATATTT [TGCATGCA_site77],6.74
3,AAAAAAAAAAGAAAAGGTACACAGAATATATATATA [XGTACX_site6914],8.7
4,AAAAAAATAAGACACACACACAAAAAAATAAAAATA [CACACA_site6357],6.88
5,ATTATGAATTTTAATTGTACATTATTATAGAATGTA [XGTACX_site619],6.22
6,AATAATTCTTAAAGGTGTACAATATGTATATAAGAA [XGTACX_site595],7.29
7,AGTTATTTTTATATTTCACACACATATACTTTTACA [CACACA_site9357],6.73
8,AATAAATAGTAGTAGGTGCTACTATATTATATATAT [GTGCAC_site9452],6.85
9,TATGTAATAATAAACGGTACACTATATTGTATGAAA [XGTACX_site4648],6.79
10,GCATATGATGAGCATATAATCATAAGAAAAAAAAAA [CACACA_negctrl_site701],7.24
11,ATTTTCTATATCTTTCAACACACAAATTTTTTTTTC [CACACA_site7918],6.69
12,TACATCAAACAAGTATGTACATATATATATATATAT [XGTACX_site7415],9.29
13,TATATATATATAGATGCATGCAATTACATATAACAA [TGCATGCA_site118],8.87
14,TTGTGTACATATTAAGTGCATATATATATATATATA,9.66
15,ATATTACATATGTGCTGTACGCAATATATTATATCT [XGTACX_site1520],6.87
16,GCATATCTATTTTCACGTACACAAACATGTATATAT [XGTACX_site3722],7.27
17,AAGAACTTTAATAAGTGTACATTTATTGGAAACATG [XGTACX_site2995],6.61
18,TTATATAAACACCAACGTACGTTCATTTAACATAAC [XGTACX_site5250],6.7
19,TATATATATATATATTGTACATATGTGGTATAAATG [XGTACX_site6108],9.03
20,AAAAATATATATTCAGTGCATATAACAAAAATTATA [GTGCAC_site9794],9.35
21,CATATATAACCTATAGCACACATATATAATATATAT [CACACA_site8544],6.87
22,CATAATAATAGAAACACACACACATAGACATATATA [CACACA_site1308],6.99
23,ATTAAATAAAAAAACACACACATATATACATATATA [CACACA_site3445],6.67

row,Sequence,gcPBM binding intensity (ln)
1,TAAAATATAGAAAATTTTATTAAATATAAAAAAATA [CACACA_negctrl_site1441],5.87
2,TATATTATTTTATATTGTACATACCAAATATTATAT [XGTACX_site1693],6.31
3,AGAAAAATAAACAAATGTACAAATTATTACTATATA [XGTACX_site1087],6.32
4,CATGTGATAATGATTAGTACATAAACAAAAATATAT [XGTACX_site5866],6.73
5,ACATATTAATTATTATGACATACATATCAGTTATTA [TGCATGCA_negctrl_site126],6.31
6,TTTCTCTTCTAAACATGTACAAAAATACATACATAT [XGTACX_site1365],6.9
7,AAAAATTAAAATATTATAGTTGAAACTTTTATAAAT [TGCATGCA_negctrl_site454],5.9
8,TCCCATTTATTATGGTGTACAATTAATTAAACATAA [XGTACX_site750],6.45
9,ATATATATATATATATGTACATACATACATAGAACT [XGTACX_site2214],9.21
10,TATATTTATTCCTGTTGTACTTTATATTATTTTTTT [XGTACX_site1415],6.89
11,AATTTTGTTTAGCACACACACATACATACATACATA [CACACA_site5707],7.49
12,TATAATATTAATGACTGTACTCATACGTATATTTAT [XGTACX_site5493],6.78
13,CCCATTTTGACAAAAAGTACAAGTTCAGGTTTTATA [XGTACX_site1532],6.44
14,TTTAATTATTAGTGTGCACACAACTATGAGTTTTTA [CACACA_site8997],10.8
15,AATTACATTCAATTCTGTACTAATAGTAATTCAAAA [XGTACX_site7419],6.46
16,CAAAAACATACCTACACACACAATATGTATTTATAA [CACACA_site5862],6.55
17,AAATGAATATTCATAGTGCAATATATAAATGAAAAT,9.5
18,AAATATATTTCACGCACACACACCCCAAATAAATTT [CACACA_site3820],7.65
19,TATTCCTATAAAAAAACACACACATATAAATATATA [CACACA_site8727],6.56
20,AAATAGATAAGTAGGACACACATATATATATATTAA [CACACA_site1862],6.49
21,AAGTATTTTTTTACATGTACATATATATATATATAT [XGTACX_site5065],9.28
22,ATATTTCAAAATGAAAGTACATATAAAAATTATACA [XGTACX_site3787],5.9
23,ATTTGCAGTATTTCGGAACACACAAACATAAATATG [CACACA_site8726],6.46

row,Sequence,gcPBM binding intensity (ln)
1,TATAAAAAATTCTTCCTTATTTTATGATATATATAT [TGCATGCA_negctrl_site57],8.05
2,TCATTTTATTATTCTACACACTTATCTATAATTATA [CACACA_site34],6.73
3,TTTTTCATATGACACACACACAAAAATAATGTGGAA [CACACA_site7692],6.58
4,AAATGAACACGAAAGGAAAAAAAAATATATATATAT [CACACA_negctrl_site267],9
5,CATTTTTTTTTATAAATACACACGTACGGGTGCATA [CACACA_site1569],7.38
6,TTCTGGCAAAATAACACACACATATATTTTATATAC [CACACA_site3242],7.55
7,GAACATTTACGCCCCACACACCTACCAACAAAAAAA [CACACA_site7746],6.81
8,TTCTTAAAAAAAAATAAAATAAAAAAAAAAATAAAA [CACACA_negctrl_site99],6.16
9,ATAATTACATAGATTGGTACACATTTTTGATTGTAT [XGTACX_site3802],6.42
10,GTACAAATGATTAATCCTTTACTTATATATATATAT [XGTACX_negctrl_site138],8.9
11,TTAAAAATGTGTGTGCGTACATAATATTTCGAAAAA [XGTACX_site8197],6.95
12,AAATAAAATCATAATGTGCGCATATAAATTTGTAGG [GTGCAC_site9662],8.1
13,AAGGTAGATATATTTAGTACGTAATTTTTTTTTTTT [XGTACX_site7288],6.18
14,ATATATATATATGAAAGTACACATCTATTTTTTCTT [XGTACX_site6059],9.08
15,ATTAATATGAATAAATGTACAAATGAATGATTACAT [XGTACX_site6044],6.01
16,TAATATAATATATAGGTGCAATATTAACAAAAATTT,9.47
17,ATAATGTGTTAGGCGTGTACACAATTGTATGGTTTA [XGTACX_site2377],7.09
18,GTGTATCAATATGTAGGTACGTAAATATAGATAATA [XGTACX_site5526],6.76
19,TAAATATTATTTATATGTACTGATATATTAAATAAA [XGTACX_site3446],6.14
20,AATTAATATTTAAATTGTACATGAACATTTTAATGT [XGTACX_site462],6.25
21,AAAATAAAATTTACTTGTACTAAAGGGATACGCGCA [XGTACX_site1453],6.44
22,AATATAAATTTATATTGTACATATTTTATTATATGT [XGTACX_site905],6.37
23,GTCACAAAATAAATTAAACACACAACATCATATATG [CACACA_site8182],6.77

row,Sequence,gcPBM binding intensity (ln)
1,AAAATAAGGACTGTTGTGCACTGGATTTGTGGTTAC [GTGCAC_site9830],10
2,AAAAAAAAAAACAGTTGTACATTTATTTATATATTA [XGTACX_site217],6.14
3,GACATAAGATAATTACACATTGTTTCCTCAATAATA [CACACA_negctrl_site1616],6.41
4,TAAGTAAAAAATTAAAAAGATTACAGGGGGGGAAGG [XGTACX_negctrl_site491],7.37
5,ATTTTAACGAATATATGTACATAAAAAAAAAAAAGA [XGTACX_site8750],6.73
6,AATACATACAGACACACACACACATATAAATAAATA [CACACA_site7642],7.05
7,GCTCATTGAAGTTATACACACCAAATATGTAAATAT [CACACA_site7217],6.68
8,ACATATCTACACAGTGGTACTTCCATTAATATATAC [XGTACX_site3827],6.72
9,AAAAGGGATAAATGTGCGCACATGTTATATATATAT [GTGCAC_site9534],9.12
10,AACAATGTTGTACATACACACACACTAATAAAAAAT [CACACA_site8758],6.97
11,TCATAAATTAAACAAACACACACGTTCTTTTATTTA [CACACA_site713],6.22
12,ATTTATTCAAATGGTTGTACTACAAATAAACATTAT [XGTACX_site3378],6.71
13,ATAACAAAATAAAACACACACACAAATGTACAGATA [CACACA_site5358],6.89
14,TATTCATGTTTAAAAAGTACATATTATGGTAACATT [XGTACX_site4533],6.23
15,ATTTTTGTGTTTACACGTACGTGTAAATTATTTTTC [XGTACX_site1869],6.88
16,TCCTTTTCTTAATTTAAAAAATATAAAAAAAACGAA [CACACA_negctrl_site1821],6.11
17,AGAAGCATACATCAAGCACACACACCCACACCCACA [CACACA_site8014],6.6
18,ACACGTTTATATAAAAAATTAAAATTTTTCTTATTT [CACACA_negctrl_site1523],6.52
19,CATAATTTACATAAAAGTACATATATATTAATGACG [XGTACX_site6247],6.52
20,TTAAATAAAATTTATTGTACATAAAATTAAATATAG [XGTACX_site3039],6.26
